Data: PubChem BioAssay AID1768 (National Center for Advancing Translational Sciences (NCATS), 2009)
Among all 270,000 compounds or so, about 620 (0.23%) were called active. Inconclusive results, whose numbers are uncertain, are shown with a selection of clear calls. Calls follow the shape of the dose curve; as a rule, active = well fitted inhibition curve with a large enough effect in the polarisation, with a control signal flat (not every such curve was filed as active); inconclusive = small, poorly fitted or top-dose-only effect, or effect the other way, or a change in a side signal; inactive = no such curve, though single readings can be large or run the other way; the % refers to the polarisation. Potencies of inconclusive entries are doubtful fits and often do not repeat. A note “side channel” means that the fit belongs to a control or component signal, not to the main read-out.

These compounds were tested against Menin (Homo sapiens) (UniProt O00255) (assay: qHTS Assay for Inhibitors Targeting the Menin-MLL Interaction in MLL Related Leukemias: Competition With Texas Red Labeled MLL-derived Mutant Peptide). Conditions: fluorescence polarization; FP activity change, negative = inhibition: at 61.6 µM (top of the series).
For FP activity change, negative = inhibition in this document: % of control where 0% means no effect.
Potency is read from the fitted curve at half-maximal effect; tags tell the direction and shape of the fitted curve or compound fluorescence and quenching.

Chain of UniProt O00255 (O00255 whole entry, looked up): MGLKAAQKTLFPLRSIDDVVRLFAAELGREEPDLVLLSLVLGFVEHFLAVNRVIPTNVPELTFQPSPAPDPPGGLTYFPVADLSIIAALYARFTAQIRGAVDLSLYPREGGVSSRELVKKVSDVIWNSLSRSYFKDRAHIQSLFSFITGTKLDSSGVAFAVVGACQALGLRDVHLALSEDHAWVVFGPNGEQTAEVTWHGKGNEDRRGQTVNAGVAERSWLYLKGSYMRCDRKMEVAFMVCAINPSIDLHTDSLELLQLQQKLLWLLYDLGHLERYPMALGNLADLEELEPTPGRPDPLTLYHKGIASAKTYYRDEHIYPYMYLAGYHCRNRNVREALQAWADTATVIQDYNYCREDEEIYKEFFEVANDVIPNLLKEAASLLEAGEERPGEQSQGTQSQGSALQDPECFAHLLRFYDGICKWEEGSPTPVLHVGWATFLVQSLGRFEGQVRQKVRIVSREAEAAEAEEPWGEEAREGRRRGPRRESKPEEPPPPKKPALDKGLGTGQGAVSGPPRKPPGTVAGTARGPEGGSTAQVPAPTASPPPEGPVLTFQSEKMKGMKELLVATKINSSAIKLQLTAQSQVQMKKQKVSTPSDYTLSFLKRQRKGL

Potency, inconclusive:
N#Cc1c(-c2ccccc2)c(-c2ccccc2)n(Cc2ccco2)c1NC(=O)c1cccs1 14.1 µM [inhibitor, partial curve]
COc1ccc(/C=C2/SC(c3ccc(C)cc3)=NC2=O)cc1OC 31.6 µM [quencher, side channel, single point]
C/C(=N/NC(=O)c1ccccc1)c1ccc(NC(=O)C(F)(F)F)cc1 35.5 µM [inhibitor, single point]
CC1CCCCN1C(=O)C1COc2ccccc2O1 (stereo not given) 7.94 µM [inhibitor, full curve]
Cc1cc(C(=O)Nc2ccc(N3CCOCC3)c3nonc23)ccc1[N+](=O)[O-] 35.5 µM [inhibitor, single point]
O=C(CNCC1CCCCC1)Nc1ccc(N2CCCCC2)cc1 8.91 µM [fluorescent, side channel, full curve, poor fit]
Cc1c(C(=O)OCc2ccccc2)[nH]c2c1C(=O)CC(c1ccco1)C2 (stereo not given) 31.6 µM [quencher, partial curve]
O=C(O)c1ccccc1NS(=O)(=O)c1cccc(C(F)(F)F)c1 39.8 µM [quencher, side channel, single point]
CCC1CN(C(=O)NCc2ccc(F)cc2)c2cc(C)ccc2O1 (stereo not given) 11.2 µM [fluorescent, side channel, partial curve]
CCc1ccc(NC(=O)C2CCCN(S(=O)(=O)c3ccc4[nH]c(=O)ccc4c3)C2)cc1 (stereo not given) 39.8 µM [fluorescent, side channel, single point]
Cc1ccc(C)n1NC(=O)c1ccc(O)cc1 28.2 µM [quencher, side channel, single point]
CC(C)(C)c1cc(Cl)c(O)c(NC(=S)NC(=O)c2cccnc2)c1 35.5 µM [quencher, side channel, single point]
O=C(CSc1nnc(-c2cccs2)n1Cc1ccccc1)NCc1ccc2c(c1)OCO2 12.6 µM [fluorescent, side channel, partial curve]
O=C(COc1ccccc1[N+](=O)[O-])Nc1ccc(NC(=O)c2cc3ccccc3o2)cc1 6.31 µM [quencher, side channel, partial curve]
N#CC1CC(c2ccc([N+](=O)[O-])cc2)=NN1c1ccc([N+](=O)[O-])cc1 (stereo not given) 15.8 µM [quencher, side channel, partial curve]
CCCC1c2ccc(C)n2CCN1C(=O)Nc1ccccc1Cl (stereo not given) 15.8 µM [fluorescent, side channel, partial curve]
Cc1cccc(NC(=O)c2cccc(S(=O)(=O)Nc3ccccc3C(=O)O)c2)c1 22.4 µM [quencher, side channel, partial curve]
Cc1ccc2nc(NC(=O)c3ccco3)sc2c1 25.1 µM [quencher, side channel, single point]
Oc1c(Br)cc(Br)cc1C=NCc1ccc(F)cc1 11.2 µM [quencher, side channel, partial curve]
O=C1ON=C(c2ccc(Cl)cc2)/C1=C/c1ccc(O)cc1 25.1 µM [quencher, side channel, partial curve]
COc1ccc(Nc2nc3ccc(C)cc3n3cnnc23)cc1Cl 5.62 µM [quencher, side channel, partial curve]
Clc1ccc(C2Nc3cccc4cccc(c34)N2)cc1Cl 2.82 µM [quencher, side channel, full curve]
CC(=O)Nc1ccc(-c2csc(Nc3cc(C)ccn3)n2)cc1 10 µM [quencher, side channel, partial curve]
CC(C)NCC(O)COCCOc1ccc(C(C)(C)C)cc1 (stereo not given) 35.5 µM [fluorescent, side channel, single point]
Cc1oc2cc3oc(=O)c(CCC(=O)NCCCN4CCCC4=O)c(C)c3cc2c1C 20 µM [inhibitor, single point]
CCCOc1ccc(/C=C/C(=O)N2CCN(c3ccccn3)CC2)cc1 10 µM [fluorescent, side channel, partial curve]
CN(Cc1ccccc1)C(=O)c1cccc(C(=O)N(C)Cc2ccccc2)c1 17.8 µM [fluorescent, side channel, partial curve]
Cc1ccc(O)c(NC(=O)c2cc(-c3ccco3)on2)c1 14.1 µM [quencher, side channel, partial curve]
COc1ccc(N(CC(=O)Nc2ccccc2C(=O)O)S(=O)(=O)c2ccc(C)c([N+](=O)[O-])c2)cc1 25.1 µM [quencher, side channel, partial curve]
O=C(c1cccc(-c2nnc(-c3ccccc3)o2)c1)N1CCCCCC1 10 µM [inhibitor, partial curve]
CSc1ccc(NC(=O)c2cccnc2)cc1C#N 39.8 µM [inhibitor, single point]
CCOc1ccc(C(C#N)N2CCOCC2)cc1OC (stereo not given) 4.47 µM [inhibitor, full curve, poor fit]
C/C(=N\Nc1cc(C)nc(-c2ccccc2)n1)c1cccc([N+](=O)[O-])c1 2.51 µM [quencher, side channel, full curve, poor fit]
CCCC(=O)Nc1ccc(C(=O)NCCc2ccc(F)cc2)cc1 25.1 µM [inhibitor, single point]
CCCCn1c(SCC(=O)c2cc(OC)ccc2OC)nc2cc(S(N)(=O)=O)ccc21 25.1 µM [inhibitor, single point]
Cc1ccc(-c2nnc(CCC(=O)N(C)Cc3nccs3)o2)s1 0.631 µM [fluorescent, side channel, full curve, poor fit]
COc1ccc([C@]23Cc4cc(C#N)ccc4C(O2)c2c(cc(-c4ccccc4)oc2=O)O3)cc1 3.98 µM [inhibitor, single point]
COc1cc(C2c3c([nH]c(=O)[nH]c3=O)Nc3ccc4ccccc4c32)cc(OC)c1OC (stereo not given) 17.8 µM [quencher, side channel, partial curve]
COc1ccccc1Nc1nnc(SCC(=O)Nc2nc(-c3ccc(F)cc3)cs2)s1 2.82 µM [inhibitor, partial curve, poor fit]
Cc1ccccc1OCCNC(=O)/C=C/c1ccc([N+](=O)[O-])cc1 39.8 µM [quencher, side channel, single point]
O=C(N/N=C/c1cc(Cl)c(O)c(Cl)c1)c1cc2c(ccc3ccccc32)o1 8.91 µM [quencher, side channel, partial curve]
COc1ccc(NC(=O)c2oc3ccccc3c2NC(=O)C2CC2)cc1 6.31 µM [quencher, side channel, partial curve]
Cc1nn(-c2ccc(F)cc2)c(C)c1CN1CCN(CCC(C)C)C(CCO)C1 (stereo not given) 11.2 µM [inhibitor, partial curve, poor fit]
Cc1ccc(NC2=NC(c3ccccc3)n3c(nc(C)cc3=O)N2)c(C)c1 (stereo not given) 39.8 µM [inhibitor, single point]
O=C1c2ccccc2C(=O)N1CC1c2ccccc2CCN1S(=O)(=O)c1ccccc1 (stereo not given) 8.91 µM [inhibitor, single point]
CC1CCc2c(C(=O)Nc3cccc(-c4nn[nH]n4)c3)csc2C1 (stereo not given) 15.8 µM [quencher, side channel, partial curve]
CCN(CC)S(=O)(=O)c1ccc(C(=O)NC2=NCCS2)cc1 31.6 µM [fluorescent, side channel, single point]

Potency, active:
O=C(Nc1ccc(Cl)c(Cl)c1)Nc1nnc(CC2=CCCCC2)s1 25.1 µM

FP activity change, negative = inhibition, inactive:
C[C@]12O[C@H]1[C@@H](O)C(Br)=C(CO)[C@H]2O -0.207%
CCOC(=O)N1CCN(Cc2nc(N)nc(Nc3ccc(Cl)cc3)n2)CC1 1.27%
CCOc1ccc(NC(=S)NN(C)C(=S)Nc2ccc(OCC)cc2)cc1 11.2%
Cc1cc(=O)oc2c(C)c(OCC(=O)N3CCN(c4cccc(Cl)c4)CC3)ccc12 -9.61%
O=C(O)c1c(Cl)c(Cl)c(Cl)c(Cl)c1C(=O)N1CCOCC1 -0.978%
C[C@H]1C[C@H]2[C@@H]3CCC4=CC(=O)C=C[C@]4(C)[C@@]3(F)[C@@H](O)C[C@]2(C)[C@@]1(O)C(=O)CO -3.86%
CC(C)C1=CC2=CC[C@@H]3[C@](C)(CCC[C@@]3(C)C(=O)O)[C@H]2CC1 2.77%
CN(c1ccc(C(=O)N2CCCCC2)cc1)S(=O)(=O)c1cccs1 3.25%
CNC(=O)[C@H](Cc1c[nH]c2ccccc12)NC(=O)[C@@H](CC(=O)NO)CC(C)C 8.94%
COc1ccc(CCNCC(=O)Nc2ccc(C)c(Br)c2)cc1OC 0.827%
COc1ccc(NC(C)=[N+](C)CCNS(=O)(=O)c2ccc(Cl)cc2)cc1Cl -4.36%
Cc1cccc(OCC(=O)NCC(=O)N/N=C/c2cc(Br)ccc2OCc2ccccc2)c1 5.45%
